Laboratory results from PubChem BioAssay AID504832 (National Center for Advancing Translational Sciences (NCATS), 2011).
“And” between values parts separate entries of the source, which are not always exact repeats. Equal values may be shown once. In all, about 310,000 compounds went through this assay and about 18,000 (5.8%) were called active. The inconclusive results got no clear call from the source; some entries with a clear call stand among them for comparison. Calls come from the whole dose curve; as a rule, active = well fitted inhibition curve with a large enough effect; inconclusive = small, poorly fitted or top-dose-only effect, or another doubt; inactive = no such curve, though single readings can be large or run the other way. Potencies beside an inconclusive call are fits to weak or partial responses and may not hold up.

Assay: Primary qHTS for delayed death inhibitors of the malarial parasite plastid, 48 hour incubation
Conditions: P. falciparum luciferase growth in erythrocytes; series mostly up to 28.7 µM; activity change, negative = inhibition: at the top concentration
How it was run: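 Luciferase-expressing P. falciparum in infected erythrocytes (2% hematocrit, 0.1% parasitemia final) in RPMI 1640/0.5% Albumax were exposed to compound for 48 hours at 37 C, 5% CO2; growth read as luminescence.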
% is set by controls: 0 for no effect and ±100 for the full control effect; potency is the fitted concentration of half-maximal effect; tags give direction and shape of the fitted curve.

| SMILES | Potency | activity change, negative = inhibition |
| --- | --- | --- |
| Cc1onc(-c2ccccc2)c1-c1csc(COc2ccccc2)n1 | inconclusive: 9.28 µM [inhibitor, partial curve, poor fit] |  |
| CC(=O)Nc1sc(N/N=C\c2ccccc2F)nc1-c1cccs1 | inconclusive: 18.5 µM [inhibitor, single point] |  |
| C=CCC1(CC=C)CCCN1C(=O)CC1C(=O)NCCN1Cc1cccc(OC)c1OC (stereo not drawn) | inconclusive: 13.1 µM [inhibitor, partial curve, poor fit] |  |
| CC(=O)c1cccc(NC(=O)CSc2nnc(-c3ccc(S(=O)(=O)N4CCCC4)cc3)o2)c1 | inconclusive: 8.28 µM [inhibitor, partial curve] |  |
| Cc1ccc(-c2csc(Nc3ccc(C(=O)O)cc3)[n+]2Cc2ccccc2)cc1 | inconclusive: 7.38 µM [inhibitor, partial curve] |  |
| Cc1ccc(C)c(-c2csc(NC(=O)c3cnccn3)n2)c1 | inconclusive: 7.38 µM [inhibitor, partial curve, poor fit] |  |
| CCC1CCCCN1C(=O)COc1c(Br)cc(Br)c2cccnc12 (stereo not drawn) | inconclusive: 18.5 µM [inhibitor, single point] |  |
| CCCCCCCCCCCCCCCC(=O)NCCc1c[nH]c2ccccc12 | inconclusive: 0.0738 µM [inhibitor, full curve, poor fit] |  |
| CC(C)NC(=S)Nc1ccc2cn[nH]c2c1 |  | inactive: 0.246% |
| Cc1[nH]n(-c2ccccc2)c(=O)c1C(=O)c1ccccc1 |  | inactive: 0.792% |
| O=C(CCn1nc(-c2ccc(Cl)cc2)c2ccccc2c1=O)NN1CCOCC1 | inconclusive: 0.657 µM [inhibitor, partial curve] |  |
| CCn1c(=N)n(CC(=O)c2ccc(Br)s2)c2ccccc21 | inconclusive: 16.5 µM [inhibitor, single point] |  |
| CCN(CC)CC(=O)N1c2ccccc2Oc2c(c(=O)n(C)c(=O)n2C)C1c1cccc([N+](=O)[O-])c1 (stereo not drawn) | active: 5.86 µM |  |
| O=C(CC1C(=O)NCCN1Cc1ccoc1)NCCCn1ncc2ccccc21 (stereo not drawn) |  | inactive: -14.8% |
| COc1ccc2nc(SC(C(=O)c3ccccc3)c3ccccc3)nc(C)c2c1 (stereo not drawn) | inconclusive: 10.4 µM [inhibitor, single point] |  |
| Cn1cc(S(=O)(=O)Oc2ccccc2)c(=O)n(C)c1=O | inconclusive: 0.37 µM [inhibitor, partial curve, poor fit] |  |
| COC(=O)C1=C(c2ccc3ccccc3c2)C[C@@H]2CC[C@H]1N2C(=O)NCC1CC1 | active: 3.29 µM |  |
| COCCCN(C(=O)CCOc1ccccc1C)c1c(N)n(Cc2ccccc2)c(=O)[nH]c1=O | active: 13.1 µM |  |
| COc1cc(C(=O)N=c2sc3ccccc3n2C)cc(OC)c1OC |  | inactive: -13% |
| O=C(NC(=S)N1CCCCCC1)c1ccccc1 | inconclusive: 11.7 µM [inhibitor, single point] |  |
| COc1cc(C(=O)ONC(=O)c2ccc(OC(F)F)cc2)cc(OC)c1OC | inconclusive: 13.1 µM [inhibitor, partial curve] |  |
| CS(=O)(=O)N1CCc2cc(C(=O)Nc3ccccc3Br)ccc21 |  | inactive: 88.1% |

| SMILES | Potency | activity change, negative = inhibition |
| --- | --- | --- |
| Cc1c(Cl)cccc1NC(=S)NCCc1ccc(F)cc1 | inconclusive: 10.4 µM [inhibitor, single point] |  |
| Cc1ccc(S(=O)(=O)N2CCCN(C(=O)c3ccc(-n4cccn4)cc3)CC2)cc1 | inconclusive: 10.4 µM [inhibitor, partial curve, poor fit] |  |
| COc1ccc(N2C(=O)CSC2c2ccc(F)cc2)cc1 (stereo not drawn) |  | inactive: -3.45% |
| COC(=O)c1ccc(Oc2nc(Nc3ccc(F)cc3)nc(N3CCCC3)n2)cc1 | inconclusive: 18.5 µM [inhibitor, single point] |  |
| Cc1nc2ccc(S(=O)(=O)N(C)CC(=O)NCc3ccc(N(C)C)cc3)cc2s1 | inconclusive: 13.1 µM [inhibitor, single point] |  |
| CN(C)CCCOc1nn(Cc2ccccc2)c2ccccc12 | inconclusive: 9.07 µM [inhibitor, partial curve, poor fit] and inconclusive: 20.8 µM [inhibitor, single point] |  |
| COc1ccccc1Oc1ccc(NC(=O)c2ccc(Cl)cc2)cc1 | inconclusive: 2.62 µM [inhibitor, partial curve, poor fit] |  |
| C/C(Cn1nc([N+](=O)[O-])cc1C)=N\NC(=O)COc1ccccc1[N+](=O)[O-] |  | inactive: 33.6% |
| COc1ccc(NC(=O)c2ccc(C(=O)c3ccccc3)o2)cc1 | active: 7.38 µM |  |
| O=C(CSC(=S)N1CCCC1)c1cc(Br)cc(Br)c1O | inconclusive: 10.4 µM [inhibitor, single point] |  |
| COc1ccccc1N1C(=O)CC(N2CCc3ccccc32)C1=O (stereo not drawn) | inconclusive: 14.7 µM [inhibitor, single point] |  |
| CCOC(=O)c1cc2c3ccccc3n(CC)c2nc1N | inconclusive: 0.828 µM [inhibitor, partial curve, poor fit] |  |
| CC1(C)C2CC=C(/C=N/NC(=S)NCCc3ccccc3)C1C2 (stereo not drawn) | inconclusive: 8.28 µM [inhibitor, partial curve] |  |
| CCOC(=O)C(NC(=O)c1cccc(Cl)c1)(OCc1ccc(F)cc1)C(F)(F)F (stereo not drawn) | inconclusive: 9.28 µM [inhibitor, single point] |  |
| Cc1ccc(C(=O)NCC(c2ccc(F)cc2)N2CCOCC2)cc1 (stereo not drawn) |  | inactive: 18% |
| O=C(OCC(=O)N1CCC(c2ccccc2)=N1)c1ccc([N+](=O)[O-])s1 | inconclusive: 18.5 µM [inhibitor, single point] |  |
| Cc1cc2c(=O)n(Cc3ccco3)c(SCC(=O)c3ccc(Cl)s3)nc2s1 | active: 5.86 µM |  |
| CCOc1ccc(NC(=O)N2CCN(C(=O)c3ccco3)CC2)cc1 | inconclusive: 10.4 µM [inhibitor, partial curve] |  |
| O=C(NCc1ccccc1)c1ccc(C2SCC(=O)N2Cc2ccccc2)cc1 (stereo not drawn) | inconclusive: 11.7 µM [inhibitor, partial curve, poor fit] |  |
| CCc1ccc(C2=NN(C(C)=O)C(c3ccco3)C2)cc1 (stereo not drawn) |  | inactive: 51.6% |
| CCc1ccc(N(C(=O)c2csnn2)C(C(=O)NC2CCCCC2)c2cccnc2)cc1 (stereo not drawn) | inconclusive: 18.5 µM [inhibitor, single point] |  |
